B1: Con1-1 (C) (Fc fusion)
chain: [human IgG1 Fc not written out]GGGGGAQAGGMRPYDGMLGWPNYDVQALE
B2: Con1-3 (C) (Fc fusion)
chain: [human IgG1 Fc not written out]GGGGGAQAPGQRPYDGMLGWPTYQRIVLE
B3: L1-2 (N) (Fc fusion)
chain: MGAQLNFTPLDELEQTLYEQWTLQQSLEGGGGG[human IgG1 Fc not written out]
B4: L1-9 (N) (Fc fusion)
chain: B3 chain with L5S, N6K, T8K, Q25H, S26A
B5: L1-14 (N) (Fc fusion)
chain: B3 chain with L5S, T8M, W21F, T22M, Q25H, S26Q
B6: L1-3 (N) (Fc fusion)
chain: B3 chain with L5T, N6K, T8N, Q25H, S26Q
B7: L1-22 (N) (Fc fusion)
chain: MGAQYKFNPMDELEQTLYEEFLFQHALEGGGGG[human IgG1 Fc not written out]
B8: L1-C3 (N) (Fc fusion)
chain: B3 chain with L5T, T8Q, E14D, S26R
B9: L1-19 (N) (Fc fusion)
chain: MGAQQTFQPLDDLEEYLYEQWIRRYHLEGGGGG[human IgG1 Fc not written out]
B10: L1-13 (N) (Fc fusion)
chain: MGAQQEYEPLDELDETLYNQWMFHQRLEGGGGG[human IgG1 Fc not written out]
B11: L1-15 (N) (Fc fusion)
chain: B10 chain with E6K, E8Q, E15K, N19D, W21F, F23L, H24Q, R26G
B12: L1-11 (N) (Fc fusion)
chain: B7 chain with Y5Q, K6N, N8K, Q15D, E19K, E20Q, A26S
B13: L1-4 (N) (Fc fusion)
chain: B3 chain with L5V, N6K, T8K, E12A, Q20H, T22M, L23F, S26A
B14: L1-5 (N) (Fc fusion)
chain: MGAQVKYKPLDELDEILYEQQTFQERLEGGGGG[human IgG1 Fc not written out]
B15: L1-16 (N) (Fc fusion)
chain: B3 chain with L5Q, N6K, T8Q, Q15E, E19K, S26R
B16: L1-12 (N) (Fc fusion)
chain: B3 chain with L5Y, N6K, E12D, Q25H, S26V
B17: L1-18 (N) (Fc fusion)
chain: B14 chain with V5Q, Y7F, K8M, Q21F, T22M, E25Q, R26S
B18: L1-17 (N) (Fc fusion)
chain: B14 chain with I16W, E19H, Q21F, F23L, Q24H, E25H, R26Q
B19: L1-C2 (N) (Fc fusion)
chain: B3 chain with L5T, N6K, T8Q, E14D, S26R
B20: L1-20 (N) (Fc fusion)
chain: MGAQEDYMPLDALDAQLYEQFILLHGLEGGGGG[human IgG1 Fc not written out]
B21: 12-9-1 (C) (Fc fusion)
chain: [human IgG1 Fc not written out]GGGGGAQGFEYCDGMEDPFTFGCDKQTLE
B22: 12-9-7 (C) (Fc fusion)
chain: [human IgG1 Fc not written out]GGGGGAQMLDYCEGMDDPFTFGCDKQMLE
B23: 12-9-4 (C) (Fc fusion)
chain: [human IgG1 Fc not written out]GGGGGAQAQDYCEGMEDPFTFGCEMQKLE
B24: 12-9-2 (C) (Fc fusion)
chain: [human IgG1 Fc not written out]GGGGGAQKLEYCDGMEDPFTQGCDNQSLE
B25: 12-9-5 (C) (Fc fusion)
chain: [human IgG1 Fc not written out]GGGGGAQLLDYCEGVQDPFTFGCENLDLE
B26: 12-9-6 (C) (Fc fusion)
chain: [human IgG1 Fc not written out]GGGGGAQHQEYCEGMEDPFTFGCEYQGLE
B27: 12-9-3 (C) (Fc fusion)
chain: [human IgG1 Fc not written out]GGGGGAQLQEWCEGVEDPFTFGCEKQRLE
B28: 12-9-C2 (C) (Fc fusion)
chain: [human IgG1 Fc not written out]GGGGGAQLQDYCEGVEDPFTFGCENQRLE
B29: Con1-4 (C) (Fc fusion)
chain: [human IgG1 Fc not written out]GGGGGAQSGQLRPCEEIFGCGTQNLALLE
B30: Con1-6 (C) (Fc fusion)
chain: [human IgG1 Fc not written out]GGGGGAQGQDLRPCEDMFGCGTKDWYGLE
B31: 12-9 (C) (Fc fusion)
chain: [human IgG1 Fc not written out]GGGGGAQFDYCEGVEDPFTFGCDNHLE
notes: also called Parent: 12-9 (C)
B32: L1 (C) (Fc fusion)
chain: [human IgG1 Fc not written out]GGGGGAQKFNPLDELEETLYEQFTFQQLE
B33: Con4-L1 (C) (Fc fusion)
chain: [human IgG1 Fc not written out]GGGGGAQGSGSATGGSGSTASSGSGSATHKFNPLDELEETLYEQFTFQQGGGGGQEECEWDPWTCEHMLE
B34: 2xL1 (C) (Fc fusion)
chain: [human IgG1 Fc not written out]GGGGGAQKFNPLDELEETLYEQFTFQQGGGGGGGGKFNPLDELEETLYEQFTFQQLE
notes: one of the rows may be 2xL1 (N)

Changes are numbered by the printed parent chain. Values joined by “and” are separate entries in the source; they are usually repeats but may differ in a detail not shown here. Equal entries are not always repeated.

What is called IC50 is the concentration at which inhibition is half-maximal. A lower IC50 goes with greater potency in that assay.

The target in the first assay is T1, human Ang-2 (human, UniProt O15123 19-496, limits assumed).
T1 construct: Sources differ by assay: R&D Systems 623-AN (mixture of 2 truncated versions) for initial screening; also called hAng-2; huAng-2
T1 sequence (looked up): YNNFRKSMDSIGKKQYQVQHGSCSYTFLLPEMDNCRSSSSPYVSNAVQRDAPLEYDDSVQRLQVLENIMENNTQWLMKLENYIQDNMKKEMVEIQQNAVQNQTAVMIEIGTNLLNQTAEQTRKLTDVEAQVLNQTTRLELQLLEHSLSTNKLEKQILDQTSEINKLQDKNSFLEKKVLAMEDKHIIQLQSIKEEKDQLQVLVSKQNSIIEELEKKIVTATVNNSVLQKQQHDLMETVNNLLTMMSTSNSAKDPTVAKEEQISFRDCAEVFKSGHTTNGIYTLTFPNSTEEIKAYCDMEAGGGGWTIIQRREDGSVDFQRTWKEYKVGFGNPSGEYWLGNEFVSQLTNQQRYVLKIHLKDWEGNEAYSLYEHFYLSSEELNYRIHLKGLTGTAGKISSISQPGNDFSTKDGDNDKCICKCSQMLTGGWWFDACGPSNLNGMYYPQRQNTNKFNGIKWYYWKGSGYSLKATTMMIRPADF
In words: neutralization ELISA vs Tie-2-Fc. (ELISA stands for enzyme-linked immunosorbent assay.)
B1 showed an IC50 of 3.08 nM.

B2 yielded an IC50 of 16.4 nM.

In the case of B3, the IC50 worked out at 0.04 nM.

In turn, B4 yielded an IC50 of 1.62 nM.

B5 registered an IC50 of 0.11 nM. Compared with the last molecule, the IC50 is about 15-fold lower.

As to B6, the IC50 turned out to be 0.16 nM.

In turn, B7 returned an IC50 of 0.09 nM. Compared with the last molecule, the IC50 is about 1.8-fold lower.

Regarding B8, the IC50 came out at 0.06 nM.

Regarding B9, the half-maximal inhibitory concentration (IC50) came out at 1.26 nM. Compared with the last molecule, the IC50 is about 21-fold higher.

B10 came in with an IC50 of 0.05 nM.

Regarding B11, 0.04 nM corresponded to half-maximal inhibition (IC50).

In turn, B12 displayed an IC50 of 0.07 nM.

B13 came in with an IC50 of 0.08 nM.

Consider B14, for which the IC50 worked out at 0.05 nM.

On to B15, for which half-maximal inhibition (IC50) was put at 0.11 nM.

In the case of B16, the IC50 is 0.08 nM.

For B17, 0.16 nM corresponded to half-maximal inhibition (IC50).

Take B18: the IC50 was determined as 0.08 nM.

B19 had an IC50 of 0.05 nM.

B20 gave an IC50 of 0.09 nM.

Regarding B21, the IC50 stood at 1.84 nM.

Regarding B22, half-maximal inhibition (IC50) was put at 0.93 nM.

In turn, B23 yielded an IC50 of 2.05 nM.

Molecule B24 gave an IC50 of 8.42 nM.

In the case of B25, the IC50 is 1.56 nM.

Turning to B26, the IC50 was found to be 0.95 nM.

With B27, the IC50 came out at 0.81 nM.

With B28, the IC50 amounted to 1.41 nM.

Molecule B29 showed an IC50 of 1.68 nM.

Take B30: the IC50 is 8.6 nM.

On to B31, for which the IC50 came to 15 nM.

The next assay has as its target T2, murine Ang-2 (murine, UniProt O35608 19-496, limits assumed).
T2 construct: also called mAng-2; mouse Ang-2
T2 sequence (looked up): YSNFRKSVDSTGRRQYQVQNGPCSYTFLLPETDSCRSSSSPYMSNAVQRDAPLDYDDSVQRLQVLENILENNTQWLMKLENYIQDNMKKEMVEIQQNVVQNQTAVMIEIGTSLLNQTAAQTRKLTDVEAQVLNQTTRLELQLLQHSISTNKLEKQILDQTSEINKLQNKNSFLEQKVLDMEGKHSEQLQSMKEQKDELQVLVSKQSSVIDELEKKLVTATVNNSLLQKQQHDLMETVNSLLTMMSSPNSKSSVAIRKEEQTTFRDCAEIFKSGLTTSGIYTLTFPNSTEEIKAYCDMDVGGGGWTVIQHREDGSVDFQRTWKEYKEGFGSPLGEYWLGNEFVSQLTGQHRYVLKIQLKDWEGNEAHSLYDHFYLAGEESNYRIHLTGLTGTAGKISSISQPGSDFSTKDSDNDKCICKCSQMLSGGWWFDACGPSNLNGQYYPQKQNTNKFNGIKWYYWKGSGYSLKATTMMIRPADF
In words: neutralization ELISA vs Tie-2-Fc. The method, then: (§1) Microtiter plates to which human Ang-2 polypeptide was bound were prepared as described for the Affinity ELISA. […] Next, about 100 microliters per well of goat anti-mouse-IgG-HRP (Pierce Chemical CO., catalog #31432) was added at a dilution of 1:10,000 in PBS containing about 1 percent BSA. Plates were incubated at room temperature for about 1 hour, after which they were washed five times with PBS containing about 0.1 percent Tween-20. About 100 microliters per well of TMB substrate (described above) was then added and color was allowed to develop. Absorbance was then read in a spectrophotomer at 370 nm.
Consider B32, for which the IC50 amounted to 37 nM.

For B33, inhibition was half-maximal at 0.04 nM (IC50).

B34: the half-maximal inhibitory concentration (IC50) was 0.8 nM and 1 nM.

The target in the next assay is T1, human Ang-2. Kind of assay: neutralization ELISA vs Tie-2-Fc. This is another data set of the same source. The method, then: as §1
B32 yielded an IC50 of 65 nM.

B33 registered an IC50 of 0.05 nM.

In the case of B34, the IC50 is 0.65 nM and 0.9 nM.

For the origin of these results see US20090054323A1 (published 2009).
